Structures are written as SMILES. In all, about 310,000 compounds went through this assay and about 2,200 (0.71%) showed an effect of 50% or more. Effects have a minus sign here. This is one part of the list.

In this assay the target is human ether-à-go-go-related gene (hERG) potassium channel (human, UniProt Q12809). The experiment in a line: primary screen, population patch clamp on CHO cells stably expressing hERG.
Chain of human ether-à-go-go-related gene (hERG) potassium channel (Q12809 whole entry, looked up): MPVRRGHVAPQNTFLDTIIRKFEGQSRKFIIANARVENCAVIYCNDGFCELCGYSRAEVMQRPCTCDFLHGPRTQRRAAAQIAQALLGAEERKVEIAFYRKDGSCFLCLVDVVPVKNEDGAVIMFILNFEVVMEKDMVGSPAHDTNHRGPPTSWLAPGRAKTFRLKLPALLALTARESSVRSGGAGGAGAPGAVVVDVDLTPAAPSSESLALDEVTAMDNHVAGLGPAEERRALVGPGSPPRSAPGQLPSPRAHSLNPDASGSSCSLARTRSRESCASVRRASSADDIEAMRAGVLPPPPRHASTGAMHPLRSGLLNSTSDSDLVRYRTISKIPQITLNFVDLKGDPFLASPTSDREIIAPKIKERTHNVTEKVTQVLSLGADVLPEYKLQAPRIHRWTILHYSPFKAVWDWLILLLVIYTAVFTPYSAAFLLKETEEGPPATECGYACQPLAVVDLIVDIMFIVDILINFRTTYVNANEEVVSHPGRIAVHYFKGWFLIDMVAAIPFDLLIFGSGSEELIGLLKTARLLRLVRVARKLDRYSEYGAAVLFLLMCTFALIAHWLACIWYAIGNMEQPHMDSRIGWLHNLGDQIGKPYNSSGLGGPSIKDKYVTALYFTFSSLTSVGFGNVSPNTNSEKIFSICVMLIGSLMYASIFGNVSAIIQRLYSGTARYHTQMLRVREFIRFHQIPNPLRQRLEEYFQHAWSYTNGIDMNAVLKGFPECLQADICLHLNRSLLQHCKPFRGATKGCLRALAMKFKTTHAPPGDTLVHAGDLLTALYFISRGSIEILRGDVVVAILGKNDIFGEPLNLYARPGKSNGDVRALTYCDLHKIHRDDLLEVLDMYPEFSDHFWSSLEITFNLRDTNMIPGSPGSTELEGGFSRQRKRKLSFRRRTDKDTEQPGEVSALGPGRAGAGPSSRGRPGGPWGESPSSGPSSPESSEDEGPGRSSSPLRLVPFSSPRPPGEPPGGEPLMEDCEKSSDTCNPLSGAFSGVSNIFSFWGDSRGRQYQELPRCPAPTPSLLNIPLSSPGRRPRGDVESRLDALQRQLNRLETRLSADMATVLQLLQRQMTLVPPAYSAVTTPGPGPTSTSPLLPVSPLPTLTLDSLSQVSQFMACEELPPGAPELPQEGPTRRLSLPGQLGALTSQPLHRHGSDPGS
As to `CCOC(=O)CCCCC(=O)c1[nH]c(=O)[nH]c1CSc1nc(C)cc(C)n1`, the “hERG current change (%, negative = inhibition) at 1uM” value came to 0.309%.
`C=C(C)C1CC=C(C)/C(=N/NC(=S)Nc2ccccc2)C1` (stereo not drawn): the “hERG current change (%, negative = inhibition) at 1uM” value worked out at 19.5%.
Regarding `O=C(NCCc1csc(-c2ccccc2)n1)c1ccccc1F`, the “hERG current change (%, negative = inhibition) at 1uM” value is listed as -1.45%.
For the compound `COc1ccc(C2CC(=O)Nc3cc(C)c(C)cc32)c(OC)c1OC` (stereo not drawn), the “hERG current change (%, negative = inhibition) at 1uM” value is 9.67%.
For `CCSc1ncnc2sc3c(c12)CCC3`, the “hERG current change (%, negative = inhibition) at 1uM” value is recorded as 11.5%.
For `COCCNC(=O)C1CCC(CNS(=O)(=O)c2ccccc2)CC1` (stereo not drawn), the “hERG current change (%, negative = inhibition) at 1uM” value was found to be 10.5%.
Regarding `COc1cccc(CN2C(=O)c3ccccc3S2(=O)=O)c1`, the “hERG current change (%, negative = inhibition) at 1uM” value is listed as 9.93%.
Regarding `Clc1ccc(-c2[nH]ncc2N=Nc2ccccc2)cc1`, the “hERG current change (%, negative = inhibition) at 1uM” value was 8.48%.
On to `CCCCOC(=O)c1sc2nc(N3CCOCC3)c3c(c2c1N)CC(C)(C)OC3`, for which the “hERG current change (%, negative = inhibition) at 1uM” value amounted to 11.7%.
For `Cc1ccc2nc(NC(=O)C3CSC4(C)CCC(=O)N34)sc2c1` (stereo not drawn) the value was 7.78%; for `COC(=O)C1=C(c2ccc(OC)c(OC)c2)C[C@@H]2CC[C@H]1N2C(=O)NCCNC(C)=O`, 12.2%.
`Cc1oc(-c2ccccc2)cc1C(=O)Nc1ccccc1`: the “hERG current change (%, negative = inhibition) at 1uM” value was -10.7%.
For `Cc1cc(C(=O)N(Cc2nnc(-c3ccc(Cl)cc3)o2)C(C)C)c2ccccc2n1` the value was -16.3%; for `CCOc1ccc(CN(C)C(=O)c2ccc(NC(=O)CC3SC(N4CCCC4)=NC3=O)cc2)cc1` (stereo not drawn), 12.6%.
On to `Nc1nc(-c2ccccc2)c(-c2ccccc2)n1N`, for which the “hERG current change (%, negative = inhibition) at 1uM” value is recorded as 13.2%.
In the case of `Cc1nn(-c2ccccc2)c(C)c1/C=N/NC(=O)c1ccccc1O`, the “hERG current change (%, negative = inhibition) at 1uM” value came to 9.16%.
The result for `CN(C)S(=O)(=O)N1CCN(c2ccc([N+](=O)[O-])c(N3CCOCC3)c2)CC1` reads 6.47%; that for `Cc1cc(=O)oc2c3c(cc(OCC(=O)N[C@@H](C)C(=O)O)c12)OC(C)(C)CC3`, 7.24%; that for `Cn1cccc1/C=N/NC(=O)Cc1cccs1`, 11.4%.
In the case of `O=C1c2ccccc2C(=O)C1c1ccnc2ccccc12`, the “hERG current change (%, negative = inhibition) at 1uM” value turned out to be 11.7%.
`O=C(c1nc2ncccn2n1)N1CCN(c2ccccc2)CC1`: the “hERG current change (%, negative = inhibition) at 1uM” value came to 10.5%.
As to `COc1ccccc1-c1nn(Cc2ccccc2)cc1C(=O)NCC(c1ccco1)N1CCCC1` (stereo not drawn), the “hERG current change (%, negative = inhibition) at 1uM” value is -9.9%.
The result for `CCc1cc2c3c([nH]c2cc1S(=O)(=O)N1CCC2(CC1)OCCO2)CCCC3=O` reads 17.4%; that for `O=C(CSc1ncc(-c2ccccc2)n1CC1CCCO1)N1CCCCC1` (stereo not drawn), 16.7%; that for `CN(C)S(=O)(=O)c1ccc(S(=O)(=O)N(CC(=O)Nc2ccccc2)Cc2ccco2)cc1`, 14%.
For `CN(/N=C/c1ccc(-c2ccc([N+](=O)[O-])cc2)o1)c1ccccc1`, the “hERG current change (%, negative = inhibition) at 1uM” value was found to be 13.6%.
As to `CCn1c2ccccc2c2cc(NC(=O)CSc3nnc(-c4cccc(F)c4)o3)ccc21`, the “hERG current change (%, negative = inhibition) at 1uM” value was found to be 5.9%.
With `COC(=O)c1ccc(CN(c2ccc(C)cc2)S(=O)(=O)c2ccc3c(c2)OCCO3)o1`, the “hERG current change (%, negative = inhibition) at 1uM” value worked out at 9.85%.
For the compound `COCCN(C(=O)CSc1n[nH]c(-c2ccccc2)n1)c1c(N)n(CC(C)C)c(=O)[nH]c1=O`, the “hERG current change (%, negative = inhibition) at 1uM” value is on record as 24.5%.
Turning to `O=C(CC1(O)C(=O)N(CCc2ccccc2)c2ccccc21)c1ccccn1` (stereo not drawn), the “hERG current change (%, negative = inhibition) at 1uM” value is recorded as 13.5%.
On to `Cc1cc(C(=O)Cn2cnc3cc([N+](=O)[O-])ccc3c2=O)c(C)n1CC1CCCO1` (stereo not drawn), for which the “hERG current change (%, negative = inhibition) at 1uM” value amounted to 10%.
`Cc1onc(-c2ccccc2)c1C(=O)OCC(=O)Nc1ccc(C#N)cc1`: the “hERG current change (%, negative = inhibition) at 1uM” value is listed as 4.46%.
Regarding `CC1=CC(=O)C=C(C)C1=NOc1ccccc1[N+](=O)[O-]`, the “hERG current change (%, negative = inhibition) at 1uM” value was 7.38%.
In the case of `CC(Nc1cc(N2CCN(S(=O)(=O)N(C)C)CC2)ccc1[N+](=O)[O-])c1ccccc1` (stereo not drawn), the “hERG current change (%, negative = inhibition) at 1uM” value worked out at 14.2%.
Take `COc1ccc(C2(C)NC(=O)NC2=O)cc1OC` (stereo not drawn): the “hERG current change (%, negative = inhibition) at 1uM” value is on record as 12.6%.
As to `COc1ccc(C(C)C)cc1S(=O)(=O)Nc1ccncc1`, the “hERG current change (%, negative = inhibition) at 1uM” value is on record as 11%.
For `CCOC(=O)c1ccccc1NC(=O)COC(=O)C1CC(=O)N(c2ccc3c(c2)OCCO3)C1` (stereo not drawn) the value was 32.3%; for `COC(=O)c1sccc1N/N=C/c1cccc(OC)c1O`, 16.8%; for `CC1CCCCN1S(=O)(=O)c1ccc(NC(=O)c2ccco2)cc1` (stereo not drawn), 5.1%.
With `CCc1nnc(NC(=O)CN2CCN(Cc3ccccc3C)CC2)s1`, the “hERG current change (%, negative = inhibition) at 1uM” value was 14.2%.
For `COc1ccc(OC(=O)N(C)C)c(CN(C)C)c1.Cl`, the “hERG current change (%, negative = inhibition) at 1uM” value stood at 6.42%.
Take `Cc1cc(NC(=O)c2cccs2)n(-c2nc3ccccc3[nH]2)n1`: the “hERG current change (%, negative = inhibition) at 1uM” value is 11%.
Turning to `Nc1ncnc2nc[nH]c12.O=S(=O)(O)O`, the “hERG current change (%, negative = inhibition) at 1uM” value came out at 20.3%.
The result for `Cc1cc(C(=O)COC(=O)c2cccc(O)c2)c(C)n1C1CC1` reads 11.2%; that for `CC1(c2ccccc2)NC(=O)N(CC(=O)NCC2CCCO2)C1=O` (stereo not drawn), 7.01%.

The values are drawn from publication PMC4336329 (PLoS ONE, 2015).
